# Source: PubChem BioAssay AID504706 (National Center for Advancing Translational Sciences (NCATS), 2011)
# Screen size: about 320,000 compounds; about 200 (0.062%) were called active. Inconclusive results, whose numbers are uncertain, are shown with a selection of clear calls. Calls come from the whole dose curve; as a rule, active = well fitted activation curve with a large enough effect; inconclusive = small, poorly fitted or top-dose-only effect; inactive = no such curve, though single readings can be large or run the other way. No potency is given beside an inconclusive call; the fits are too rough.
# Test: qHTS assay for re-activators of p53 using a Luc reporter; note: nearly all actives have a fitted effect of over 45% in size
# Conditions: H1299 p53-A138V BP100-luciferase reporter, luminescence, 24 h; series mostly up to 92.2 µM
# Summary of the method: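 H1299 (p53-null), stable ts p53-A138V + BP100-Luc; 1000 cells/well, Opti-MEM/10% FBS; cpd 4 pt, 1:5; 24 h, 37 deg C, 5% CO2; detection reagent 10 min RT; luminescence.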
# Potency is the fitted concentration of half-maximal effect; tags give direction and shape of the fitted curve.
row,SMILES,Potency
1,O=C(NC1CCCCC1)c1ccc(-c2cccc([N+](=O)[O-])c2)o1,"inconclusive [activator, full curve, poor fit]"
2,O=C(NCc1ccc(F)cc1)C1CCCN1C(=O)Nc1cccc(F)c1 (stereo not given),inactive
3,Cc1ccc(Cl)cc1N1CCN(C(=O)CCS(=O)(=O)c2cccc3nonc23)CC1,inactive
4,COc1ccc(/C(C)=N/NC(=O)CNC(=O)c2ccco2)cc1,inactive
5,Fc1ccc(-c2cnn3c(-c4cccs4)ccnc23)cc1,"inconclusive [activator, full curve, poor fit]"
6,COc1ccc(/C=C2\CCCc3c2nc2ccccc2c3C(=O)O)cc1OC,inactive
7,CCOC(=O)c1c(C)n(C)c2ccc(OCC(O)CN3CCC(C)CC3)cc12 (stereo not given),"inconclusive [activator, single point]"
8,COc1ccc(Cl)cc1C(=O)Nc1ccc(NC(C)=O)cc1,inactive
9,Cc1ccc(C)c(NC2=NS(=O)(=O)c3ccccc32)c1,inactive
10,c1ccc(OCCOc2ncnc3sccc23)cc1,"inconclusive [activator, partial curve, poor fit]"
11,CC(C)(C)c1csc(SCC(=O)Nc2ccc(Cl)cn2)n1,inactive
12,O=C(N/N=C/C1C(c2ccccc2)C1(Cl)Cl)c1cccc(Cl)c1 (stereo not given),"inconclusive [activator, full curve, poor fit]"
13,C/C(N)=C(/C#N)C(=O)CSc1nnc(-c2ccc(OC(F)F)cc2)o1,"inconclusive [activator, partial curve, poor fit]"
14,CC(C)C1NC2(C(=O)c3ccccc3C2=O)C2C(=O)N(c3ccc(F)cc3)C(=O)C12 (stereo not given),inactive
15,COc1cc2[nH]c(=O)n(Cc3ccc(C(=O)NCC4CCCO4)cc3)c(=O)c2cc1OC (stereo not given),inactive
16,COc1ccc(/C=C2\SC(=N)N(c3nccs3)C2=O)cc1OC,"inconclusive [activator, partial curve, poor fit]"
17,Cc1ccc(C(=O)CCC2CCCC2=O)cc1 (stereo not given),"inconclusive [activator, partial curve, poor fit]"
18,CC(c1ccccc1)N1C(=O)c2ccc(C(=O)Nc3ccc(Br)cc3C(=O)O)cc2C1=O (stereo not given),inactive
19,COc1ccc2[nH]c(=O)c(CNc3ccccc3)cc2c1,"inconclusive [activator, single point]"
20,Cc1ccc(C(=O)O)cc1NCc1ccncc1,"inconclusive [activator, single point]"
21,COc1ccc(-c2csc(-c3cccs3)n2)c(OC)c1,"inconclusive [activator, partial curve, poor fit]"
22,O=C(NCc1ccccc1CN1CCCC1)c1cccc(N2CCCC2=O)c1,"inconclusive [activator, single point]"
23,COc1ccc(CN2CCN(Cc3cccc(Oc4ccccc4)c3)CC2)c(OC)c1OC,inactive
24,CC(=O)c1ccccc1C(=O)N1CCCC(C(=O)c2ccc(C(F)(F)F)cc2)C1 (stereo not given),"inconclusive [activator, partial curve, poor fit]"

row,SMILES,Potency
1,c1ccc(Nc2nc(-c3ccccc3)ns2)cc1,"inconclusive [activator, partial curve, poor fit]"
2,CCN1/C(=C/c2ccc3ccccc3[n+]2CCCS(=O)(=O)[O-])C=Cc2cc(C)ccc21,inactive
3,Cc1ccc(C)c(Oc2nnnn2-c2ccccc2)c1,"inconclusive [activator, single point]"
4,COC(=O)N/N=C/c1cc([N+](=O)[O-])cc(Br)c1O,"inconclusive [activator, partial curve, poor fit]"
5,CSc1ccc(C(=S)N2CCCC2)cc1,"inconclusive [activator, single point]"
6,Cc1occc1C(=O)NNC(=S)Nc1ccccc1,"inconclusive [activator, full curve, poor fit]"
7,COC(=O)c1cn(CC(=O)Nc2ccccc2C)c2ccccc12,"inconclusive [activator, single point]"
8,COc1ccc(-n2nc(C(=O)NCC(=O)N3CCCC(C)C3)c3ccccc3c2=O)cc1Cl (stereo not given),inactive
9,O=C(Nc1nc(-c2nc3ccccc3s2)cs1)C1COc2ccccc2O1 (stereo not given),"inconclusive [activator, partial curve, poor fit]"
10,Fc1cccc(CSc2ccc(-c3ccc4c(c3)OCO4)nn2)c1,"inconclusive [activator, single point]"
11,COc1cc(C=O)c(Br)cc1OCc1ccc(C)cc1,"inconclusive [activator, partial curve, poor fit]"
12,COc1ccc(N2C(=O)c3ccccc3NC2(C)C)cc1,"inconclusive [activator, partial curve, poor fit]"
13,Cc1cccn2c1nc(=S)n2C(=O)c1ccco1,"inconclusive [activator, partial curve, poor fit]"
14,Cc1ccc(CNC(=O)CSc2nc3ccsc3c(=O)n2NC(=O)c2ccccc2)cc1,"inconclusive [activator, partial curve, poor fit]"
15,COc1ccc(C2=Nc3cc(C)ccc3OC2)cc1,"inconclusive [activator, partial curve, poor fit]"
16,CN1CCN(c2ccc(-c3cccc(NC(=O)COc4ccc(Cl)cc4Cl)c3)nn2)CC1,"inconclusive [activator, full curve, poor fit]"
17,COc1cc(CNc2cccc(C(=O)O)c2)cc(Br)c1OCC(=O)NC(C)(C)C,inactive
18,COc1ccc(Cc2nc(C)cc(Cl)n2)cc1[N+](=O)[O-],"inconclusive [activator, single point]"
19,CCc1nnc(NC(=O)c2ccc(N3C(=O)CCC3=O)cc2)s1,"inconclusive [activator, single point]"
20,COCCn1c(N)c(N(Cc2ccccc2)C(=O)c2oc3ccccc3c2C)c(=O)[nH]c1=O,inactive
21,Cc1ccccc1NC(=S)NCc1cccn1C,inactive
22,O=C(CCN1C(=O)/C(=C\c2cccs2)SC1=S)Nc1ccc(C(=O)O)cc1,inactive
23,COC(=O)Cc1c(OC)ccn(CCc2c[nH]c3ccccc23)c1=O,"inconclusive [activator, partial curve, poor fit]"
24,C=CCN=Cc1c(C)[nH]n(-c2ccccc2)c1=O,"inconclusive [activator, partial curve, poor fit]"

row,SMILES,Potency
1,Cc1cccc(-c2nc(-c3ccncc3)no2)c1,"inconclusive [activator, partial curve, poor fit]"
2,CC(=O)Nc1ccc(S(=O)(=O)N/N=C/c2cccnc2)cc1,"inconclusive [activator, single point]"
3,Cc1ccccc1C(=O)O/N=C(\N)c1ccc([N+](=O)[O-])cc1,"inconclusive [activator, full curve, poor fit]"
4,Cc1ccc(C(=O)N/N=C/c2ccoc2)cc1C,inactive
5,CCc1cc2c(=O)c(-c3nc(C)cs3)coc2cc1O,"inconclusive [activator, full curve, poor fit]"
6,S=C(Nc1ccc(Br)cc1)NC1CCCC1,"inconclusive [activator, partial curve, poor fit]"
7,O=C(O)c1ccc(CSc2nnc(-c3ccccc3Br)o2)cc1,"inconclusive [activator, single point]"
8,Cc1cc(C(=O)Nc2nnc(C(F)(F)F)s2)no1,"inconclusive [activator, partial curve, poor fit]"
9,O=C(N/N=C/c1cccs1)c1cc(-c2cccc3ccccc23)n[nH]1,"inconclusive [activator, full curve, poor fit]"
10,CC(=O)OCC1OC(OC(C)=O)C(NC(=O)c2cccnc2)C(OC(C)=O)C1OC(C)=O (stereo not given),"inconclusive [activator, single point]"
11,CCCC(c1nnnn1CS(=O)(=O)c1ccc(C)cc1)N1CCN(c2ccc(F)cc2)CC1 (stereo not given),"inconclusive [activator, single point]"
12,COc1cccc(C2=NN(C(=O)c3ccc(C)o3)C(O)(C(F)(F)F)C2)c1 (stereo not given),inactive
13,NC(=O)CC1C(=O)N(c2ccccc2)C(=S)N1NC(=O)c1ccccc1 (stereo not given),"inconclusive [activator, full curve, poor fit]"
14,COc1ccccc1NC(=S)NNC(=O)c1ccccc1Br,"inconclusive [activator, partial curve, poor fit]"
15,CCCc1cc(C(=O)Nc2cc(C)ccc2O)no1,"inconclusive [activator, full curve]"
16,Cc1ccc(NC(=O)Nc2cccnc2)cc1Cl,inactive
17,Cc1nc(SCC(=O)N2CCN(c3ccccc3)CC2)n[nH]1,inactive
18,NC(N)=N/N=C/c1ccc(OCc2ccccc2Cl)cc1,inactive
19,O=C(Nc1ccc(SC(F)F)cc1)c1ccc2c(=O)n3c(nc2c1)CCC3,"inconclusive [activator, full curve, poor fit]"
20,Cc1ccsc1/C=N/N1CCN(c2ccccc2)CC1,"inconclusive [activator, partial curve, poor fit]"
21,Nc1nc2ccc([N+](=O)[O-])c(N)c2s1,inactive
22,CCN(CC)S(=O)(=O)c1cccc(C(=O)Nc2ccc(Cl)cn2)c1,"inconclusive [activator, partial curve, poor fit]"
